Results: publication PMC4336329 (PLoS ONE, 2015)
Hit rate of the full screen: of about 310,000 compounds, about 2,200 (0.71%) showed an effect of 50% or more. Effects have a minus sign here. The list shows a part of the results.

These molecules were tested against human ether-à-go-go-related gene (hERG) potassium channel (human, UniProt Q12809) (assay: primary screen, population patch clamp on CHO cells stably expressing hERG).
human ether-à-go-go-related gene (hERG) potassium channel, sequence (Q12809 whole entry, looked up): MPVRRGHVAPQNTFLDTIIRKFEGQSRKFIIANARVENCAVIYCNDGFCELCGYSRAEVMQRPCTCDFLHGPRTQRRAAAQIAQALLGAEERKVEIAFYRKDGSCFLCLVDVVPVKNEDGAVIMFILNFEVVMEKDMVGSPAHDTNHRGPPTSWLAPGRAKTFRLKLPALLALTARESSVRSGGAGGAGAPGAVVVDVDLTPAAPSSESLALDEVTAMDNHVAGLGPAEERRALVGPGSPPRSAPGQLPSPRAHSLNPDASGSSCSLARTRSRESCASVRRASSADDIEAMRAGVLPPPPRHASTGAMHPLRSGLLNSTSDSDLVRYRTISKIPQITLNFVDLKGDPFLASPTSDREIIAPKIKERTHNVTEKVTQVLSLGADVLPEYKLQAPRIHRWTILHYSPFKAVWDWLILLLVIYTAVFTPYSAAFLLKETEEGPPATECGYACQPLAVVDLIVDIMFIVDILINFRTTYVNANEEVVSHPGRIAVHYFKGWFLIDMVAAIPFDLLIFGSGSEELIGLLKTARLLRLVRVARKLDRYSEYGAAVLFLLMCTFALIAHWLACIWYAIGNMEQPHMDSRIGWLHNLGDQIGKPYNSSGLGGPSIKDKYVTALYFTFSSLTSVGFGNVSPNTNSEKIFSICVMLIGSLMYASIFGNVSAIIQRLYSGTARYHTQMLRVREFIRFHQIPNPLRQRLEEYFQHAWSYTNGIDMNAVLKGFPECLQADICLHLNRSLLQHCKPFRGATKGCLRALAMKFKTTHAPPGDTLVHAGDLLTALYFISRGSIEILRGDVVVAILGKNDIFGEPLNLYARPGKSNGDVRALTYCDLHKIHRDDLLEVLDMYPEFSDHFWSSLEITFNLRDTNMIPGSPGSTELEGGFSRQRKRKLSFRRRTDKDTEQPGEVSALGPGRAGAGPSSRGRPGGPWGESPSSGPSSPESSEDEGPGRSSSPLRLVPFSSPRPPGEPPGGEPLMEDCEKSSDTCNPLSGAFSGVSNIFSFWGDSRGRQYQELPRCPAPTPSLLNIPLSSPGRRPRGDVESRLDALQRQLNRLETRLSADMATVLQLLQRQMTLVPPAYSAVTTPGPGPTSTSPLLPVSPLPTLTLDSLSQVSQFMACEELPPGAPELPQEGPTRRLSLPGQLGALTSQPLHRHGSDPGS

Row | Compound | hERG current change (%, negative = inhibition) at 1uM [%]
1 | Cc1nc(N2CCN(c3ccccn3)CC2)c2c(C)c(C(=O)Nc3ccc(F)c(Cl)c3)sc2n1 | 19
2 | CC(C)c1ccc(NC(=O)C2CCN(c3ncnc4c3nc3n4CCCCC3)CC2)cc1 | 19
3 | O=[N+]([O-])c1cc(Br)c(O)c(/C=N/Nc2nnnn2-c2cccc3ccccc23)c1 | -4.85
4 | COc1ccc(Nc2ncnc3sccc23)cc1OC | 5.92
5 | Cc1ccc(N2CC(C(=O)Nc3nnc(C)s3)CC2=O)cc1 (stereo not drawn) | 7.69
6 | CN1C(=O)c2cccc(N(C)C)c2C1=O | 8.8
7 | N#CC1(Nc2cccc(Br)c2)C(=O)Nc2ccccc21 (stereo not drawn) | 12.2
8 | COc1c(Cl)cnn(-c2ccccc2)c1=O | 5.7
9 | CCOc1cc(S(=O)(=O)n2ccc(C)n2)ccc1Br | 11.7
10 | Cc1cscn1 | 4.07
11 | CCOC(=O)C1CCN(C(=O)C2CCCN2S(=O)(=O)c2ccc(Cl)cc2)CC1 (stereo not drawn) | 9.14
12 | CCOc1ccc(CCNC(=O)c2nnn(CC(=O)Nc3ccc(OC)cc3)c2N)cc1OCC | 24.6
13 | COc1ccc(C(C(=O)NCCC(C)C)N(CCO)C(=O)c2snc(C(N)=O)c2N)cc1 (stereo not drawn) | 13.8
14 | COCc1ccc(C(=O)NC2CCSc3ccccc32)cc1 (stereo not drawn) | 2.7
15 | O=C1C=C(N2CCCCCC2)C(=O)N1c1ccc(Cl)cc1 | 10.4
16 | Cc1nc2ccccc2c(=O)n1CCN1CCOCC1 | 11.5
17 | CCOc1ccc(OCCC(=O)N(CCC(C)C)c2c(N)n(Cc3ccccc3)c(=O)[nH]c2=O)cc1 | 13.9
18 | Cc1nc2ccccn2c1C(=O)N/N=C/c1ccccc1Cl | 6.06
19 | CN(C)c1ccc(Nc2nc(-c3cccnc3)cs2)cc1 | 11.8
20 | O=C1c2cccc3c([N+](=O)[O-])ccc(c23)C(=O)N1c1ccc(Cl)cn1 | 9.32
21 | C/C(=N\Nc1cc(N2CCOCC2)nc(C)n1)c1cccc([N+](=O)[O-])c1 | -12.6
22 | O=[N+]([O-])c1cccc(-c2nn(-c3ccccc3)cc2CO)c1 | 11.7

Row | Compound | hERG current change (%, negative = inhibition) at 1uM [%]
23 | Nc1nc(-c2ccccc2)c(N=Nc2cccc3ccccc23)s1 | 9.08
24 | O=C(NCCCc1nc2ccccc2[nH]1)c1ccco1 | 20.1
25 | Cc1ccc(-c2nc(CS(=O)(=O)CC(=O)NC3CCC(C)CC3)c(C)o2)cc1 (stereo not drawn) | 9.35
26 | Cc1cccc(C(=O)Nc2scc(-c3ccc(Br)cc3)c2C(=O)O)c1 | 15.9
27 | CCn1cc(C(=O)NP(=O)(Nc2ccc(C)cc2)Nc2ccc(C)cc2)c2ccccc21 | 8.49
28 | Cc1ccccc1-c1nc(P(=O)(c2ccccc2)c2ccccc2)c(N2CCOCC2)o1 | 10.9
29 | Cc1cccc(NC(=O)CSCC(=O)Nc2ccc(S(=O)(=O)N3CCOCC3)cc2)c1 | 12.9
30 | Cc1ccc(CC(=O)NCCC(=O)O)cc1 | 13.5
31 | O=C(CCNC(=O)c1ccc([N+](=O)[O-])cc1)Nc1ccccc1N1CCCC1 | -6.37
32 | O=C1COc2ccc(-c3n[nH]c(=O)c4ccccc34)cc2N1 | 9.84
33 | CCCCNC(=O)N1CCCC(C(=O)c2cc(C)c(OC)c(C)c2)C1 (stereo not drawn) | 1.87
34 | Cc1onc(-c2ccccc2Cl)c1C(=O)NCC(=O)O | -5
35 | COc1cc(-c2nc(CN(C)Cc3nnc(C)o3)c(C)o2)ccc1F | -5.68
36 | C=CCNCCCCOc1ccc(OCC)cc1.O=C(O)C(=O)O | -4.67
37 | CC(C)CC(C(=O)O)N1C(=O)[C@@H]2[C@H](C1=O)[C@@H]1C[C@H]2C(Br)C1Br (stereo partly drawn) | 3.6
38 | O=c1[nH]ccc2c(O)cccc12 | 20.6
39 | O=C(CN1CCN(S(=O)(=O)c2ccc(Br)cc2)CC1)N/N=C/c1ccccc1C(=O)O | 17.8
40 | O=C(CC1C(=O)NCCN1C/C=C/c1ccccc1)NCCCC1CCCC1 (stereo not drawn) | -17.4
41 | COc1ccc(O)c(/C=C2/SC(=S)N(Cc3ccccc3)C2=O)c1 | 8.29
42 | O=C(NCC1CCCO1)c1ccc(Br)c(S(=O)(=O)N2CCOCC2)c1 (stereo not drawn) | -6.94
43 | N#C/C(=C\c1c(N2CCOCC2)nc2ccccn2c1=O)S(=O)(=O)c1ccccc1 | 0.0867
44 | CC1CN(Cc2nc3c(c(=O)n(C)c(=O)n3C)n2Cc2cccc(Cl)c2)CC(C)O1 (stereo not drawn) | 8.66

Row | Compound | hERG current change (%, negative = inhibition) at 1uM [%]
45 | Cc1nc(CCNC(=O)CC2C(=O)NCCN2Cc2ccoc2)nc2c1CCCC2 (stereo not drawn) | 6.23
46 | CCN(CC)S(=O)(=O)c1cccc(C(=O)N[C@H](C(=O)Nc2nc3ccccc3s2)C(C)C)c1 | 14.4
47 | CC(C)(C)OC(=O)Nc1ncnc2c1ncn2C1OC(CO)C2OC(C)(C)OC21 (stereo not drawn) | 12.4
48 | CCCSc1cc(=O)n(-c2ccccc2)nc1C(=O)OCC | 5.07
49 | COCCn1c(N)c(Sc2ccc([N+](=O)[O-])cc2)c(=O)[nH]c1=O | 3.81
50 | CN(C)c1cc[n+](CC(=O)c2ccc(Br)cc2)cc1.[Cl-] | 7.53
51 | Cc1ccc(C(=O)N/C(=C\c2cn(C)c3ccccc23)C(=O)OCCN(C)C)cc1 | -0.359
52 | CCc1nc(SCC(=O)N2CCc3cc(OC)c(OC)cc3C2)c(C#N)cc1C | 15.4
53 | Cn1cc(CN2CCC(n3nccc3NC(=O)CCOc3ccccc3)CC2)cn1 | 7.33
54 | O=C(Cc1c(F)cccc1Cl)NNC(=O)c1ccccc1Cl | 6.71
55 | O=c1c2ccsc2ncn1Cc1cccc(C(F)(F)F)c1 | 6.44
56 | COc1ccc(C(=O)Nn2c(C)nc3ccccc3c2=O)cc1Br | 10.4
57 | COc1ccc(CNC(=O)c2ccc(-c3ccccc3)cc2)cc1 | 16.1
58 | C=CCN1CCN(C(=O)CSc2ccccc2)CC1 | 5.06
59 | O=C(CN(Cc1ccccc1)C(=O)c1ccco1)NCc1ccc(F)cc1 | 2.1
60 | O=C(c1cccc(NS(=O)(=O)c2ccc(F)c(F)c2)c1)N1CCN(Cc2ccccc2)CC1 | 4.84
61 | C/C(=N/NC(=O)Cc1cccc2ccccc12)c1cccs1 | 10.5
62 | COc1ccccc1C1C(C(=O)c2cc3ccccc3o2)=C(O)C(=O)N1c1cc(C)on1 (stereo not drawn) | 14.6
63 | O=C1COc2ccc(S(=O)(=O)NCCc3ccccc3)cc2N1 | 14.3
64 | Cc1cccc(CSc2nnc(-c3ccccn3)n2N)c1 | 9.76
65 | Cc1cccc(C)c1NS(=O)(=O)c1cc2c3c(c1)CC(=O)N3CCC2 | 9.75
66 | CS(=O)CCC(NS(=O)(=O)c1ccccc1)C(=O)O (stereo not drawn) | 13.7

Row | Compound | hERG current change (%, negative = inhibition) at 1uM [%]
67 | COC(=O)c1ccc(CN2C(=O)NC3(CCCCC3)C2=O)cc1 | 14.1
68 | O=c1c2c3c(sc2nc(N2CCNCC2)n1CCc1ccccc1)CCCCC3 | 6.75
69 | COc1ccc(C2/C=C\CNCC(=O)N2Cc2ccc(F)cc2)cc1 (stereo not drawn) | 8.65
70 | CCCOc1ccc(Cn2ccnc2)cc1[N+](=O)[O-] | -18.4
71 | COc1ccc2c(c1)[C@H]1[C@H](CO2)[C@H](c2ccccc2)[C@]2(C)C(=O)Nc3cc(Cl)ccc3C(=O)N12 | 2
72 | COCCNC(=O)CN(C(=O)Cn1nnc2ccccc21)c1ccccc1C | 5.18
73 | CC(=O)N(CCCNC(=O)c1ccccc1)C(=O)c1ccccc1 | 10.6
74 | COC(=O)CSc1ccc2nnc(-c3ccc(OC)c(OC)c3)n2n1 | 0.586
75 | Cc1cc(C)cc(NC(=O)N2CCN(C/C=C/c3ccccc3)CC2)c1 | -40
76 | O=C(Nc1ccc(-c2cc3ccccc3oc2=O)c(Cl)c1)c1cccnc1 | 2.01
77 | CCCCC1CCC(c2nc(-c3ccccn3)no2)CC1 (stereo not drawn) | 5.57
78 | O=C(N/N=C/c1ccncc1)c1cccc(NC(=O)c2ccccc2Cl)c1 | 4.79
79 | COC(=O)[C@@]1(Cc2ccc(OC)cc2)[C@@H]2C(=CC(=O)[C@H]2CC(=O)C(=O)N(C)C)CN1C(=O)c1ccccc1 | -7.95
80 | COc1ccc(C(=O)Nc2cc(C)ccc2NC(=O)COc2ccccc2)cc1 | 5.43
81 | Cl.OC(COCC1COc2ccccc2O1)CN1CCN(c2ccccc2F)CC1 (stereo not drawn) | -19.9
82 | O=C(Cn1ncc2c(=O)oc3ccccc3c21)NCc1cccnc1 | 4.02
83 | CCCCn1c(N)c(N(CC)C(=O)c2cccc(C)c2)c(=O)[nH]c1=O | 12.8
84 | C=CCc1c(C)nc2cc(-c3ccc(C)cc3)[nH]n2c1=O | 7.24
85 | O=C(NNc1cccc(Cl)n1)c1c(Cl)cccc1Cl | 14.7
86 | COC(=O)c1cc2n3ccccc3c(C)c(-c3ccccc3)c-2c1C(=O)OC | -6.52
87 | Cc1ccc(CCNC(=O)c2cc(C)nn2-c2ccccc2)cc1 | -2.18
